The values that follow come from ChEMBL document CHEMBL4513135, “CO-ADD screening of IQOG CSIS (Spain) compounds”.

For the test, the system named is Pseudomonas aeruginosa. Particulars: Concentration 32 ug.mL-1, ASSAY_TEST Inhibition of Bacterial Growth, detection method Absorption (OD600), MEDIA CAMHB, plate type 384well, NBS, CORNING #3640, time 18 hr.

Where “and” joins values, the source holds several entries; their conditions need not be identical. Identical values can stand only once. This is one part of the list. Potency and affinity values are given separately.

A word on the Inhibition: it is the drop in the measured response relative to a control, in per cent. In the case of `COc1ccc(C2C(C#N)=C(N)Oc3ccc4ccccc4c32)cc1` (stereo unspecified), the Inhibition worked out at 17.09%. Same read-out and setting: the same measure for `CCOC(=O)c1c(C)nc(NC2CCN(Cc3ccccc3)CC2)c(C#N)c1-c1ccccc1`: 12.24%.

In the case of `N#CC1(Br)C(=NBr)Oc2ccc3ccccc3c2C1c1ccccc1` (stereo unspecified), the Inhibition turned out to be 17.54%.

Consider `N#Cc1cc(C#N)c(N2CCC(O)CC2)nc1N`, for which the Inhibition is listed as 3.85%. Still for that read-out and setting: with `CCOC(=O)c1cc2ccccc2[nH]1` the figure was 23.43%; with `CSC1=NC2(CC2c2ccccc2)C(=O)N1C` (stereo unspecified), 22.18%.

Turning to `CC1Cc2c(Br)nc3nc4c(c(N)c3c2NC1=O)CCCC4` (stereo unspecified), the Inhibition worked out at 16.06%. Consider `O=C(NN=Cc1c[nH]c2ccccc12)c1cccc2ccccc12`, for which the Inhibition was determined as 29.57%. For the compound `Nc1c2c(nc3c1C(c1ccc(Cl)c(Cl)c1)c1ccc4ccccc4c1O3)CCCC2` (stereo unspecified), the Inhibition is 14.97%. On the same count and under the same terms, the same measure for `Cn1c(C(=O)NCc2ccccc2)cc2cc(OCCCC3CCN(Cc4ccccc4)CC3)ccc21`: 20.77%; for `CCOC(=O)C1=C(C)OC(N)=C(C#N)C1c1cccnc1` (stereo unspecified): 6.6%; for `N#CC1=C(N)Oc2c(ccc3ccccc23)C1c1cccc([N+](=O)[O-])c1` (stereo unspecified): 39.53%. For the compound `Cc1ccc(C(O)SNNc2ncnc3c2cnn3-c2ccccc2)cc1` (stereo unspecified), the Inhibition came to 34.06%. Still for that read-out and setting: the same measure for `CCOC(=O)C1=C(C)Oc2nc3c(c(N)c2C1c1nccn1C)CCCCC3` (stereo unspecified): 20.83%; for `COc1ccc2c(c1)cc(CN(C)Cc1cn(Cc3ccccc3)nn1)n2C`: 13.96%. Still for that read-out and setting: with `O=C(O)n1ccc2ccccc21` the figure was 12.53%; with `COc1nc(N)c(C#N)cc1C#N`, 6.84%; with `C#CCNC(=O)c1cc2cc(OCCCC3CCN(Cc4ccccc4)CC3)ccc2[nH]1`, 5.31%. Same read-out and setting: with `CCOC(=O)/C(C#N)=C\c1ccc([N+](=O)[O-])cc1` the figure was 5.37%; with `C=CCNc1[nH]c2ccc(O)cc2c1C#N`, 13.28%. Consider `CCOC(=O)c1c(C)nc2nc3c(c(N)c2c1-c1ccc(OC)cc1)CCCCCC3`, for which the Inhibition is given as -8.56%. Take `C#CCNc1nc(OC)c(C#N)c(-c2ccccc2)c1C#N`: the Inhibition is on record as 3.44%. With `COc1cc(C2c3c(nc4c(c3N)CCC4)Oc3ccc4ccccc4c32)ccc1O` (stereo unspecified), the Inhibition is recorded as 49.01%. Consider `N#Cc1c(N)nc2c(c1-c1ccccc1)CN(Cc1ccccc1)CC2`, for which the Inhibition is given as 41.1%. Turning to `CC1=C(C(=O)N2[C@@H]3C[C@H]4CCC3(CS2(=O)=O)C4(C)C)C(c2ccccc2)C(C#N)=C(N)O1` (stereo partly specified), the Inhibition is -5.19%. For `COc1nc2nc3c(c(N)c2cc1C#N)CCCC3.Cl`, the Inhibition stood at 14.96%. Regarding `C#CCN(C)Cc1cc2cc(O)ccc2n1C.Cl`, the Inhibition is 24.88%. Still for that read-out and setting: with `Cn1ccnc1C1c2ccc3ccccc3c2Oc2nc3c(c(N)c21)CCCCC3` (stereo unspecified) the figure was -4.21%. Same read-out and setting: the same measure for `Cc1nc(NO)c2c(C)nn(-c3ccccc3)c2n1`: 26.61%; for `CCCC(=O)NCc1c(-c2ccc(Cl)cc2)nc2ccccn12`: -3.93%; for `CNN=C1N=C(SCc2ccccc2)SC1=O`: 20.09%.

As to `Cc1nc2c3c(C)nn(-c4ccccc4)c3ncn2n1`, the Inhibition is listed as 22.75%. Same read-out and setting: the same measure for `CCOC(=O)c1cn(C)c2ccccc12`: 29.33%; for `C/C(=N\NC(=O)c1cc2ccccc2n1Cc1ccccc1)C1CC1`: 20.86%.

As for `N#Cc1c(N)nc(NCCC2CCN(Cc3ccccc3)CC2)c(C#N)c1-c1ccccc1`, the Inhibition came out at 7.52%. Still for that read-out and setting: the same measure for `O=C(Cc1c[nH]c2ccccc12)NNCCc1ccccc1`: 7.4%. Turning to `Cc1cnc(NC(=O)OC(C)(C)C)c(Br)c1`, the Inhibition amounted to 17.25%. Consider `COC1=C(C#N)CC(C)C(=O)N1` (stereo unspecified), for which the Inhibition is given as 8.91%.

On to `O=C(N/N=C/c1c[nH]c2ccccc12)C(c1ccccc1)c1ccccc1`, for which the Inhibition was determined as 38.29%. As to `C=C=CCN(C)Cc1cc2ccccc2n1C.O=C(O)C(=O)O`, the Inhibition worked out at 5.5%. The same measure, in the same setting: the same measure for `COc1cc(C2c3ccc4ccccc4c3Oc3nc4c(c(N)c32)CCCC4)ccc1O.Cl` (stereo unspecified): 15.76%; for `C#CCN(C)c1nc(Sc2ccccc2)c(C#N)c(-c2ccccc2)c1C#N`: 38.94%. Same read-out and setting: the same measure for `Cc1n[nH]c2c1C(c1ccc([N+](=O)[O-])cc1)C(C#N)=C(N)O2` (stereo unspecified): -6.5%; for `N#Cc1c(-c2ccccc2)c2ccc3ccccc3c2oc1=O`: 3.94%; for `C=C1CNc2c(C#N)c(-c3ccccc3)c(C#N)c(=N)n21`: 4.26%. Same read-out and setting: the same measure for `N#Cc1c(N)nc(NCCCC2CCN(Cc3ccccc3)CC2)c(C#N)c1-c1ccccc1`: 38.45%; for `CCOC(=O)/C(C#N)=C\c1ccc(C)cc1`: 23.9%; for `c1ccc(Cn2ccc3ccccc32)cc1`: 42.69%.

For the compound `COc1ccc2c(c1)cc(CNc1ccccc1)n2C`, the Inhibition worked out at 15.4%. Same read-out and setting: the same measure for `COc1ccc2c(ccn2C)c1`: 28.61%; for `CCOC(=O)c1c(C)[nH]c2ccc(OC)cc12`: 15.28%. Take `N#C/C(=C\c1ccccc1Cl)C(=O)c1ccccc1`: the Inhibition turned out to be 14.55%. On to `CCOC(=O)N/N=C/c1ccccc1`, for which the Inhibition came to 19.67%. On the same count and under the same terms, with `Cl.NC1(C(=O)O)CC1c1cccc(Cl)c1` (stereo unspecified) the figure was 34.52%; with `O=C1NC(=O)C(=Cc2ccccc2)N1`, 38.65%; with `C#CCNc1nc(N)c(C#N)cc1C#N`, 9.02%.

Turning to `N#Cc1cc(C#N)c(Cl)nc1N`, the Inhibition is given as 7.47%. Same read-out and setting: with `O=c1oc2cc(O)ccc2cc1-c1ccccc1` the figure was 23.04%; with `Cl.Nc1c2c(nc3c1C(c1c(Cl)cccc1Cl)c1ccc4ccccc4c1O3)CCCC2` (stereo unspecified), 23.67%.

With `Cc1ccc2nc(Cl)c(/C=N/N)cc2c1`, the Inhibition stood at 13.38%. As to `N#Cc1cc(C#N)c(NC2CCN(Cc3ccccc3)CC2)nc1N`, under “32 ug/mL”, the Inhibition is 17% and 20.26%. In the case of `Cn1ccnc1C1C(C#N)=C(N)Oc2c1ccc1cccnc21` (stereo unspecified), the Inhibition turned out to be 9.47%. Consider `CCOc1nc(N)c(C#N)cc1C#N.Cl`, for which the Inhibition is recorded as -17.7%. Turning to `C#CCN(C)c1nc(N)c(C#N)cc1C#N`, where the note is “32 ug/mL”, the Inhibition was 13.14% and 18.1%.

As for `Cc1ccc(C2c3c(Cl)nnnc3Oc3ccc4ccccc4c32)cc1` (stereo unspecified), the Inhibition worked out at 43.25%. `NC1(C(=O)O)CC1c1ccc2c(c1)OCO2` (stereo unspecified): the Inhibition came to 20.59%.

Turning to `Cc1cnc2ccc(Cl)cn12`, the Inhibition was determined as 42.49%. Same read-out and setting: the same measure for `N#Cc1c(NC2CCC(Cc3ccccc3)CC2)nc(NC2CCN(Cc3ccccc3)CC2)c(C#N)c1-c1ccccc1` (stereo unspecified): 1.36%. Same read-out and setting: with `Cl.ClCCCN1CCCCC1` the figure was 6.39%; with `C#CCNc1ccc(Cl)nn1`, 35.63%. Same read-out and setting: with `CNC(=O)NC1(C(=O)O)CC1c1ccccc1` (stereo unspecified) the figure was 50.33%; with `C=C1CN(C)c2c(C#N)cc(C#N)c(=S)n21`, 16.25%. `COc1ccc(C2C(C#N)=C(Cl)Oc3c2ccc2ccccc32)cc1OC` (stereo unspecified): the Inhibition was -12.7%.

For `O=Cc1c[nH]c2ccccc12` [3-FORMYLINDOLE], the Inhibition amounted to 41.82%. `CCOC(=O)c1c(C)nc(N)c(C#N)c1-c1cccs1`: the Inhibition worked out at 6.4%. In the case of `N#CC1=C(N)Oc2ccc3ccccc3c2C1c1ccc(O)cc1` (stereo unspecified), the Inhibition came out at 18.24%. As for `c1ccc(COc2ccc3[nH]ccc3c2)cc1`, the Inhibition amounted to 34.01%. The same measure, in the same setting: with `C#CCN(C)Cc1cc2cc(OCCCCC3CCN(Cc4ccccc4)CC3)ccc2n1C` the figure was 12.81%. Same read-out and setting: the same measure for `Cn1cc(/C=C2\NC(=S)NC2=O)c2ccccc21`: 30.49%; for `Cl.Nc1c2c(nc3c1C(c1ccccc1)c1ccc4ccccc4c1O3)CCCC2` (stereo unspecified): 43.11%; for `O=C(NNCCc1ccccc1)c1cc2ccccc2[nH]1`: 17.16%. Turning to `C#CCN(C)Cc1cc2cc(OCCCC3CCN(C(=O)OC(C)(C)C)CC3)ccc2n1C`, the Inhibition was -3.3%. The same measure, in the same setting: the same measure for `COc1ccc(C2c3c(nc4c(c3N)CCCC4)Oc3ccc4ccccc4c32)cc1OC` (stereo unspecified): 13.3%; for `CC(=O)Oc1ccc(C=C2N=C(c3ccccc3)OC2=O)c(OC(C)=O)c1`: -2.97%; for `O=C(Cc1cccc2ccccc12)N/N=C/c1c[nH]c2ccccc12`: 10.97%.

For `O=C1OC(c2ccc([N+](=O)[O-])cc2)=NC1=Cc1ccccc1`, the Inhibition is on record as 13.7%.

As to `CCOC(=O)C1=C(C)OC(N)=C(C#N)C1c1ccco1` (stereo unspecified), the Inhibition is given as 1.21%. Still for that read-out and setting: the same measure for `C/C(Cc1ccccc1)=N/NC(=O)c1c[nH]c2ccc(O)cc12`: 34.85%; for `COc1cc(C=NNC(=O)Cc2c[nH]c3ccccc23)ccc1O`: 11.8%. Same read-out and setting: the same measure for `CCOC(=O)c1c[nH]c2ccc(OC)cc12`: 8.77%.

Take `COc1ccc2cc(C3C4=C(CC(C)(C)CC4=O)Oc4nc5c(c(N)c43)CCC5)c(Cl)nc2c1` (stereo unspecified): the Inhibition is listed as 20.96%. Same read-out and setting: the same measure for `Cc1nn(-c2ccccc2)c2ncnc(NCc3ccccc3)c12`: 36.14%.

`COC1=C(C#N)C(c2ccccc2)C(C=O)=C(Cl)N1` (stereo unspecified): the Inhibition stood at 7.7%. Consider `CN(C)c1ccc(C(=NNC(=O)c2cc3ccccc3[nH]2)c2ccc(N(C)C)cc2)cc1`, for which the Inhibition amounted to 19.91%. The same measure, in the same setting: the same measure for `CC(=O)Nc1n[nH]c2nc(N)c(C#N)c(-c3ccccc3)c12`: 16.91%; for `COC(=O)C(=Cc1ccccc1)NC(=O)c1ccccc1`: 32.35%; for `Cn1ccnc1C1c2c(nc3c(c2N)CCC3)Oc2ccc3ccccc3c21` (stereo unspecified): 37.14%. Consider `CC1CC(=O)Nc2c1c(Cl)nc1nc3c(c(N)c21)CCCC3` (stereo unspecified), for which the Inhibition amounted to 31.73%. In the case of `O=C(N/N=C/c1cccc(Cl)c1)c1cc2ccccc2[nH]1`, the Inhibition is on record as -3.63%. Turning to `CCOC(=O)/C(C#N)=C\c1ccc(Cl)cc1`, the Inhibition is recorded as 10.52%. The same measure, in the same setting: with `CN(N=O)C(=O)NC1(C(=O)O)CC1c1ccccc1` (stereo unspecified) the figure was 47.22%; with `CN(C)c1nc(N)c(C#N)c(-c2ccccc2)c1C#N`, 8.2%; with `N#Cc1c(N)nc(NC2CCN(Cc3ccccc3)CC2)c(C#N)c1-c1ccccc1`, 13.07%.

As for `C#CCNc1nc(NCCC2CCN(Cc3ccccc3)CC2)c(C#N)cc1C#N`, the Inhibition is given as 1.56%. Consider `CN1C/C(=C\Cl)n2c1c(C#N)c(-c1ccccc1)c(C#N)c2=O`, for which the Inhibition is on record as -1.85%. With `N#Cc1c(-c2cccc([N+](=O)[O-])c2)c2ccc3ccccc3c2oc1=O`, the Inhibition (32 ug/mL) was 3.83% and -14.72% and 0.07%.
